The whole screen tested about 52,000 compounds, of which about 4,300 (8.3%) were called active. Cut-off read from the data, not from the text of the source: active = survival mostly below about 52% (no sharp cut-off); inactive = mostly above about 56%. Some of the results follow.

The test has as its system DeltatarO mutant. Put plainly: growth inhibition of S. aureus wild type versus tarO mutant, primary screen, teichoic acid synthesis inhibitors, RN4220, OD600 (AID 463173). Particulars: OD600, 18 h, active compounds read low, screened at 18.75 µg/mL (by protocol).
As to `CCOc1ccc(/C=C/c2nc(C#N)c(NCCc3ccccc3)o2)cc1`, the survival was inactive: 78%.
With `CCOC(=O)c1c(C)oc2nc(C)nc(NCc3ccccc3OC)c12`, the survival was inactive: 75%.
`COc1ccccc1NC(=O)Cn1c(=O)n(CCCCCC(=O)NCc2ccccc2)c(=O)c2sccc21`: the survival was inactive: 54%.
For `Cn1c(=O)c2c(nc(NCCN3CCOCC3)n2C)n(C)c1=O`, the survival was inactive: 81%.
Regarding `COc1ccc2c(c1)NC(c1cccnc1)=NC(c1ccc(F)cc1)=N2`, the survival was inactive: 82%.
The value for `Cc1ccc(S(=O)(=O)c2cn(Cc3ccccc3Cl)c3ccc(F)cc3c2=O)cc1` was inactive: 84%.
Then `COc1ccc(Br)cc1CNC(=O)c1ccc2c(c1)N(Cc1ccc(C)cc1)CCS2`, with inactive: 78%; and `Cc1ccc(CN2C(=O)c3ccccc3Sc3ccc(C(=O)OCc4ccco4)cc32)cc1`, with inactive: 99%; and `O=c1ccccn1Cc1cn2ccccc2n1`, with inactive: 104%.
Then `CCOCCCn1c(=N)c(C(=O)NCC2CCCO2)cc2c(=O)n3cccc(C)c3nc21` (stereo unspecified), with inactive: 65%.
In the case of `COC(=O)C(C)Sc1cc(C)c2ccccc2n1` (stereo unspecified), the survival was inactive: 76%.
As to `CCOC(=O)Cc1cc(=O)n2[nH]cc(C#N)c2n1`, the survival was inactive: 93%.
Take `COC(=O)C1=C(c2ccccc2)c2ccccc2S(=O)(=O)N1CC(=O)Nc1ccccc1Cl`: the survival was inactive: 37%.
Then `Cc1cccc(NS(=O)(=O)c2ccc3c(c2)CCN3C(=O)C2CCC2)c1`, with inactive: 69%.
Then `Cc1cccc2cc(CN(Cc3ccco3)Cc3nnnn3CCc3ccccc3)c(=O)[nH]c12`, with inactive: 84%; and `COC(=O)C1CCN(S(=O)(=O)c2cc3c4c(c2)CC(=O)N4CCC3)CC1`, with active: 37%.
As for `O=C(c1cccs1)N1CCCc2cc(NS(=O)(=O)c3ccc(F)cc3F)ccc21`, the survival is inactive: 79%.
Then `CCCN(CCC)CCCNC(=O)Cn1cnc2sc(C)c(S(=O)(=O)N3CCC(C)CC3)c2c1=O`, with inactive: 74%; and `COc1ccc(-c2nn(-c3cccc(F)c3)c3c2cnc2cc(OC)c(OC)cc23)cc1`, with inactive: 67%.
Turning to `O=C(CCCCn1c(=O)c2ccccc2n(CC(=O)Nc2cccc(F)c2)c1=O)NCCc1ccccc1`, the survival was inactive: 78%.
Then `COc1ccc2[nH]cc(S(=O)(=O)c3ccc(C)c(C)c3)c(=O)c2c1`, with inactive: 88%; and `COC(=O)Cn1cnc2c(cnn2-c2ccc(OC)cc2)c1=O`, with inactive: 100%; and `COc1ccc(Cn2c(=O)[nH]c3cc(C(=O)N4CCN(c5cc(Cl)ccc5C)CC4)ccc3c2=O)cc1`, with inactive: 79%.
The value for `COc1ccccc1-c1noc(-c2ccc(NC(C)C)c([N+](=O)[O-])c2)n1` was inactive: 121%.
In the case of `Cc1cc(C)cc(NC(=O)CCCc2nc(-c3ccccc3Cl)no2)c1`, the survival is inactive: 89%.
Then `CSc1nc2sc3c(c2c(=O)n1-c1ccccc1)CCC(C(C)(C)C)C3` (stereo unspecified), with active: 18%; and `Cc1ccc(NC(=O)C(C)Sc2nnc(C)n2C)cc1` (stereo unspecified), with inactive: 97%; and `Fc1ccc(-c2ccc(NCc3ccccc3)nn2)cc1`, with inactive: 94%.
Then `CCc1ccc(NC(=O)Cn2cc(S(=O)(=O)N3CCCC3)c(S(=O)(=O)N3CCCC3)c2)cc1`, with inactive: 91%; and `O=C(Cn1cc(I)c(=O)[nH]c1=O)N1CCOCC1`, with inactive: 78%.
The value for `CC(C)NC(=O)CCN1C(=O)c2ccccc2Sc2ncccc21` was inactive: 72%; that for `O=C(NC1CC(=O)N(c2ccc(F)cc2)C1)C1CC1` (stereo unspecified) was inactive: 82%; that for `Cc1ccc(NC(=O)Cn2nnc(C(=O)NCc3ccc4c(c3)OCO4)c2N)cc1Cl` was inactive: 103%.
With `CCCCOC(=O)c1ccc(NC(=O)c2cnc3ccc(C)cn3c2=O)cc1`, the survival is inactive: 97%.
The value for `CCN(c1cccc(C)c1)c1ncnc2c1cnn2-c1cccc(Cl)c1` was inactive: 70%; that for `CCn1c(=O)cc(OCC(=O)N2CCN(c3ccc(F)cc3)CC2)c2ccccc21` was inactive: 80%.
For the molecule `COc1ccc(CN2COc3ccc4c(-c5ccccc5)cc(=O)oc4c3C2)cc1OC`, the survival was inactive: 55%.
Then `CCOc1ccc(C/C(N)=N\n2cnnc2)cc1`, with inactive: 94%; and `Cc1nn(C(=O)c2ccc(Br)cc2)c(C)c1Sc1ccccc1`, with active: 2%.
Then `Cn1c(=O)n(CCCc2ccccc2)c(=O)c2c1nc1n2CCN1c1ccc(F)cc1`, with inactive: 55%.
As to `CCOC(=O)c1cc2c(=O)n3ccccc3nc2n(Cc2ccco2)c1=NC(=O)c1ccc(OCC)cc1`, the survival was active: 37%.
In the case of `O=C(c1cc(-c2ccc(O)cc2)on1)N1CCN(c2ccccc2)CC1`, the survival was inactive: 96%.
As for `COc1ccc(Cl)cc1NC(=O)CSC1=Nc2ccccc2C2=NC(CC(=O)NCc3cccs3)C(=O)N12` (stereo unspecified), the survival was inactive: 75%.
Then `O=C(NCc1ccccc1)c1cnc(N2CCCCC2)c2ccccc12`, with inactive: 76%.
Then `CCOc1ccc2[nH]c3nc(SCC4CCCO4)nnc3c2c1` (stereo unspecified), with inactive: 98%.
Then `COc1cccc(Nc2nc3ccc(C)cc3nc2-n2nc(C)cc2C)c1`, with inactive: 88%; and `COc1ccc(Nc2c(-c3ccccn3)nc3ccc(Cl)cn23)cc1`, with inactive: 93%.
For `CCc1ccc(-n2c(=O)c3cccnc3n2CC(=O)NCc2ccc(C)cc2)cc1`, the survival is inactive: 80%.
Then `Cc1ccc(NC(=O)C2=CC(c3ccc4c(c3)OCO4)=NS(=O)(=O)N2C)cc1`, with inactive: 75%; and `Cc1ccc(NC(=O)Cn2c(=O)n(Cc3nc(-c4ccccc4)no3)c(=O)c3cc4c(cc32)OCO4)c(C)c1`, with inactive: 62%.
With `c1ccc2c3c(cc(N4CCOCC4)c2c1)OC1(N2CCOCC2)CCCCC1O3` (stereo unspecified), the survival is inactive: 82%.
Then `Cc1nc(Nc2ccc(S(=O)(=O)N3CCCC3)cc2)c2nnn(Cc3ccccc3)c2n1`, with inactive: 96%; and `COc1ccccc1N1CCN(CC(O)COc2ccc(C)cc2C(C)(C)C)CC1` (stereo unspecified), with active: 1%.
For `CC1=C(C)CC2C(=O)N(Cc3ccccc3)C(=O)C2C1` (stereo unspecified), the survival is inactive: 95%.
Take `CCCCN(C)C(=O)Cn1c(SCC(=O)Nc2ccc(C)c(C)c2)nc2ccccc21`: the survival was inactive: 55%.
The value for `CCOC(=O)C1(C)C=C(Nc2ccc(C(=O)O)cc2)C(=O)N1c1ccc(C(=O)O)cc1` (stereo unspecified) was inactive: 147%; that for `Cc1nc2ccccc2n1CCc1nc2c3ccccc3nc(SCc3ccc(F)cc3)n2n1` was inactive: 90%.
The value for `Cc1cccc(Nc2c3c(nc4nncn24)CCC3)c1C` was inactive: 82%; that for `COc1ccc2c(c1)c1c(c(=O)n(-c3ccccc3C)c(=O)n1Cc1c(F)cccc1Cl)n2C` was inactive: 82%.
Take `Cc1ccc(CCNC(=O)c2ccc(CS(=O)(=O)Cc3ccccc3F)o2)cc1`: the survival was inactive: 72%.
Then `CCOc1ccccc1NC(=O)CN1C=NS(=O)(=O)c2ccccc21`, with inactive: 72%.
The value for `Cc1ccc(NC(=O)CCNS(=O)(=O)c2ccc3c(c2)CCCC(=O)N3)cc1` was inactive: 77%.
For `COc1cccc2cc(-c3nc(-c4ccc(C)cc4)c(C)s3)c(=O)oc12`, the survival is active: 46%.
`O=c1cc(CSc2nnc(Cn3nnc4ccccc43)o2)c2ccccc2[nH]1`: the survival is inactive: 81%.
The value for `Cc1ccc(C(=O)Nc2ccc3nc(N4CCCCC4)cc(C)c3c2)cc1F` was inactive: 55%; that for `CC(=O)c1ccc(N2C(=O)N(Cc3cc(C)ccc3C)c3ccccc3S2(=O)=O)cc1` was inactive: 85%.
Then `O=S(=O)(Nc1ccc(Cl)cc1)c1cccc(S(=O)(=O)c2ccc(Cl)c(Cl)c2)c1`, with active: 37%; and `Cc1cc(Nc2ccc(F)cc2)nc(-n2nc(C)cc2C)n1`, with inactive: 70%.
Then `Cc1ccc(C)c(N2CCN(CCCNC(=O)Nc3ccc(Cl)cc3)CC2)c1`, with active: -5%; and `CCOC(=O)C1CCCN(C(=O)Cn2nc(CC)n3c(cc4occc43)c2=O)C1` (stereo unspecified), with inactive: 88%.
In the case of `CCOC(=O)/C(C#N)=N\Nc1ccccc1OC`, the survival is inactive: 64%.
Then `Cc1ccc(CCNC(=O)c2ccc(NC(=O)N3CCSc4ccccc43)cc2)cc1`, with inactive: 63%.
The value for `COc1ccc(N2CCN(c3cc(C)nc4nncn34)CC2)cc1` was inactive: 65%; that for `CCOc1ccc2c(c1)c(=O)c(C(=O)c1ccc(CC)cc1)cn2CC(=O)Nc1ccccc1C` was inactive: 70%; that for `Cc1ccc(C)c(N2CCN(c3nc4c(S(=O)(=O)c5ccccc5)nnn4c4ccc(Cl)cc34)CC2)c1` was inactive: 105%.
Then `CCC(C)NC(=O)Cn1c(=O)ccc2cc(S(=O)(=O)N3CCCC3)ccc21` (stereo unspecified), with active: 37%; and `CCCN(C(=O)c1cc2c(=O)oc3ccccc3c2s1)c1ccccc1C`, with inactive: 54%.
As to `Cc1ccc(NC(=O)Cn2nnc(C(=O)NCCc3ccccc3)c2N)cc1Cl`, the survival was inactive: 105%.
On to `COCC(=O)N1c2nc(-c3ccco3)nn2C2(CCCCC2)[C@@H]2CCCC[C@@H]21`, for which the survival is inactive: 58%.
Then `CCc1cccc(C)c1NC(=O)CCn1nc(C)c2c(C)n(-c3ccccc3)nc2c1=O`, with inactive: 69%; and `CC1=C(C(=O)Nc2cccc(C(F)(F)F)c2)C(c2ccccc2)n2ncnc2N1` (stereo unspecified), with inactive: 103%; and `COc1ccc(NC(=O)Cc2noc3ccc(C)cc23)cc1Cl`, with active: 56%.
The value for `O=C(c1ccc2c(Cl)c3c(nc2c1)CCCC3)N1CCN(c2ccccc2F)CC1` was active: -3%.
The value for `O=C(Nc1nnc(SCc2cc(=O)n3cc(Cl)ccc3n2)s1)c1cccc(F)c1` was inactive: 83%; that for `COc1cccc(C2=CC(c3ccccc3F)n3c(nc4ccccc43)N2)c1` (stereo unspecified) was inactive: 83%.
As for `COc1ccc(N2CC(NC(=O)c3c(F)cccc3Cl)CC2=O)cc1OC` (stereo unspecified), the survival was inactive: 95%.
Then `Cc1ccccc1NC(=O)c1cnc2sc(N3CCCC3)nn2c1=O`, with inactive: 95%.
The value for `CCC(C(=O)N1CCN(c2ccccc2)CC1)n1nc(C)c2sc3ccccc3c2c1=O` (stereo unspecified) was inactive: 62%; that for `CCOc1ccc(N2CC(c3nc4ccccc4n3CCOc3ccc(CC)cc3)CC2=O)cc1` (stereo unspecified) was active: 55%.
Then `Cc1ccc(N2C(=O)SC(Nc3ccccc3)C2=O)cc1` (stereo unspecified), with inactive: 83%.
On to `CCOc1cc(CNC(=O)c2ccc3nc(CCc4ccccc4)oc3c2)ccc1OC`, for which the survival was inactive: 70%.

For the origin of these results see PubChem BioAssay AID463173 (ICCB-Longwood Screening Facility, Harvard Medical School, 2010).
